# pIC50: −log10 of the molar value.
# System: human ECE (recombinant ECE-1 and ECE-2)
# Details: recombinant ECE-1 and ECE-2 from transfected CHO cells
smiles,measurement,value
O=P(O)(O)CN[C@@H](Cc1ccc(-c2ccccc2)cc1)c1nnn[nH]1 [(S)-[2-(Biphenyl-4-yl)-1-(1H-tetrazol-5-yl)-ethylamino]-methylphosphonic acid],pIC50,~7.00

# — patent publication US5550119A, “Phosphono substituted tetrazole derivatives as ECE inhibitors” (Ciba-Geigy Corporation, priority 1995, dated 1996)
